PMC9911399, “Two distinct binding modes provide the RNA-binding protein RbFox with extraordinary sequence specificity”
Positions count from the first letter of the chain named. This is one part of the list.

T1: RBFOX1 RRM (Homo sapiens, UniProt Q9NWB1 109-208)
T1 sequence: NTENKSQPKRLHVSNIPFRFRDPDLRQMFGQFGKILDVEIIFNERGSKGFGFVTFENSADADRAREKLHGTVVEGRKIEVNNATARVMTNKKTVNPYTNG

B1: CCAGUCG (DNA:RNA)
RNA: GGGAGACCGGAAUUCAGAUUGUCCCCAGUCGUUAAAUCCCGUCGUAGCCACCA
DNA 1: CAATCTGAATTCCGGTCTCCC
DNA 2: TGGTGGCTACGACGGGATT
B2: CCGUAGG (DNA:RNA)
RNA: B1 RNA with A27G, G28U, U29A, C30G
DNA 1: CAATCTGAATTCCGGTCTCCC
DNA 2: TGGTGGCTACGACGGGATT
B3: UGUGGCC (DNA:RNA)
RNA: B1 RNA with C25U, C26G, A27U, U29G, G31C
DNA 1: CAATCTGAATTCCGGTCTCCC
DNA 2: TGGTGGCTACGACGGGATT
B4: UGCUGGG (DNA:RNA)
RNA: B1 RNA with C25U, C26G, A27C, G28U, U29G, C30G
DNA 1: CAATCTGAATTCCGGTCTCCC
DNA 2: TGGTGGCTACGACGGGATT
B5: CGCUAAU (DNA:RNA)
RNA: B1 RNA with C26G, A27C, G28U, U29A, C30A, G31U
DNA 1: CAATCTGAATTCCGGTCTCCC
DNA 2: TGGTGGCTACGACGGGATT
B6: CUGACUC (DNA:RNA)
RNA: B1 RNA with C26U, A27G, G28A, U29C, C30U, G31C
DNA 1: CAATCTGAATTCCGGTCTCCC
DNA 2: TGGTGGCTACGACGGGATT
B7: CCCCCGU (DNA:RNA)
RNA: B1 RNA with A27C, G28C, U29C, C30G, G31U
DNA 1: CAATCTGAATTCCGGTCTCCC
DNA 2: TGGTGGCTACGACGGGATT
B8: AACCCCG (DNA:RNA)
RNA: B1 RNA with C25A, C26A, A27C, G28C, U29C
DNA 1: CAATCTGAATTCCGGTCTCCC
DNA 2: TGGTGGCTACGACGGGATT
B9: UCUUCUG (DNA:RNA)
RNA: B1 RNA with C25U, A27U, G28U, U29C, C30U
DNA 1: CAATCTGAATTCCGGTCTCCC
DNA 2: TGGTGGCTACGACGGGATT
B10: UGCGGUG (DNA:RNA)
RNA: B1 RNA with C25U, C26G, A27C, U29G, C30U
DNA 1: CAATCTGAATTCCGGTCTCCC
DNA 2: TGGTGGCTACGACGGGATT
B11: CUGCGCG (DNA:RNA)
RNA: B1 RNA with C26U, A27G, G28C, U29G
DNA 1: CAATCTGAATTCCGGTCTCCC
DNA 2: TGGTGGCTACGACGGGATT
B12: UCAGCAA (DNA:RNA)
RNA: B1 RNA with C25U, U29C, C30A, G31A
DNA 1: CAATCTGAATTCCGGTCTCCC
DNA 2: TGGTGGCTACGACGGGATT
B13: GUACUUU (DNA:RNA)
RNA: B1 RNA with C25G, C26U, G28C, C30U, G31U
DNA 1: CAATCTGAATTCCGGTCTCCC
DNA 2: TGGTGGCTACGACGGGATT
B14: CAUGAGC (DNA:RNA)
RNA: B1 RNA with C26A, A27U, U29A, C30G, G31C
DNA 1: CAATCTGAATTCCGGTCTCCC
DNA 2: TGGTGGCTACGACGGGATT
B15: CGUCCCG (DNA:RNA)
RNA: B1 RNA with C26G, A27U, G28C, U29C
DNA 1: CAATCTGAATTCCGGTCTCCC
DNA 2: TGGTGGCTACGACGGGATT
B16: UCUCGAU (DNA:RNA)
RNA: B1 RNA with C25U, A27U, G28C, U29G, C30A, G31U
DNA 1: CAATCTGAATTCCGGTCTCCC
DNA 2: TGGTGGCTACGACGGGATT
B17: UUCGCUU (DNA:RNA)
RNA: B1 RNA with C25U, C26U, A27C, U29C, C30U, G31U
DNA 1: CAATCTGAATTCCGGTCTCCC
DNA 2: TGGTGGCTACGACGGGATT
B18: AGGGGAA (DNA:RNA)
RNA: B1 RNA with C25A, C26G, A27G, U29G, C30A, G31A
DNA 1: CAATCTGAATTCCGGTCTCCC
DNA 2: TGGTGGCTACGACGGGATT
B19: UGUCAGC (DNA:RNA)
RNA: GGGAGACCGGAAUUCAGAUUGUCCUGUCAGCUUAAAUCCCGUCGUAGCCACCA
DNA 1: CAATCTGAATTCCGGTCTCCC
DNA 2: TGGTGGCTACGACGGGATT
B20: AGGCGCC (DNA:RNA)
RNA: B19 RNA with U25A, U27G, A29G, G30C
DNA 1: CAATCTGAATTCCGGTCTCCC
DNA 2: TGGTGGCTACGACGGGATT
B21: ACACCAU (DNA:RNA)
RNA: B1 RNA with C25A, G28C, U29C, C30A, G31U
DNA 1: CAATCTGAATTCCGGTCTCCC
DNA 2: TGGTGGCTACGACGGGATT
B22: CGUCCAG (DNA:RNA)
RNA: B19 RNA with U25C, A29C, G30A, C31G
DNA 1: CAATCTGAATTCCGGTCTCCC
DNA 2: TGGTGGCTACGACGGGATT
B23: CGGGACC (DNA:RNA)
RNA: B1 RNA with C26G, A27G, U29A, G31C
DNA 1: CAATCTGAATTCCGGTCTCCC
DNA 2: TGGTGGCTACGACGGGATT
B24: UAUCUGA (DNA:RNA)
RNA: B19 RNA with G26A, A29U, C31A
DNA 1: CAATCTGAATTCCGGTCTCCC
DNA 2: TGGTGGCTACGACGGGATT
B25: CCAACUU (DNA:RNA)
RNA: B1 RNA with G28A, U29C, C30U, G31U
DNA 1: CAATCTGAATTCCGGTCTCCC
DNA 2: TGGTGGCTACGACGGGATT
B26: ACCUUUU (DNA:RNA)
RNA: B1 RNA with C25A, A27C, G28U, C30U, G31U
DNA 1: CAATCTGAATTCCGGTCTCCC
DNA 2: TGGTGGCTACGACGGGATT
B27: AAGGUCA (DNA:RNA)
RNA: B1 RNA with C25A, C26A, A27G, G31A
DNA 1: CAATCTGAATTCCGGTCTCCC
DNA 2: TGGTGGCTACGACGGGATT
B28: UCCGAAC (DNA:RNA)
RNA: B19 RNA with G26C, U27C, C28G, G30A
DNA 1: CAATCTGAATTCCGGTCTCCC
DNA 2: TGGTGGCTACGACGGGATT
B29: UAUGUUC (DNA:RNA)
RNA: B19 RNA with G26A, C28G, A29U, G30U
DNA 1: CAATCTGAATTCCGGTCTCCC
DNA 2: TGGTGGCTACGACGGGATT
B30: CCGGUAG (DNA:RNA)
RNA: B1 RNA with A27G, C30A
DNA 1: CAATCTGAATTCCGGTCTCCC
DNA 2: TGGTGGCTACGACGGGATT
B31: GAUCAAC (DNA:RNA)
RNA: B19 RNA with U25G, G26A, G30A
DNA 1: CAATCTGAATTCCGGTCTCCC
DNA 2: TGGTGGCTACGACGGGATT

The binders below were run against T1, RBFOX1 RRM (assay: EMSA; HiTS-Eq, 1 nM pool, 10 min; buffer printed only for the single-RNA assays: 10 mM Tris pH 7.5, 150 mM NaCl, 3.4 mM EDTA, 0.001% NP-40, 30 C). Details: tags: His6 N-terminal (pET28a); label: 5' 32P.
How it was run: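 Purified RbFox RRM (wild type or mutant) was equilibrated for 10 min in 50 µL with 1 nM of a 5′-radiolabelled pool of RNA with 7 randomized nucleotides, its flanks annealed to DNA oligonucleotides, across increasing protein concentrations. Free RNA was separated by 8% native PAGE, excised, reverse-transcribed, PCR-barcoded and sequenced on an Illumina HiSeq 2500. Relative association constants came from read-count changes of each variant against the control reaction, normalised to the cognate motif.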

Binder | binding signal
B1 | 0.00919 KA relative to UGCAUGU
B2 | 0.00826 KA relative to UGCAUGU
B3 | 0.0234 KA relative to UGCAUGU
B4 | 0.0153 KA relative to UGCAUGU
B5 | 0.00469 KA relative to UGCAUGU
B6 | 0.0113 KA relative to UGCAUGU
B7 | 0.00315 KA relative to UGCAUGU
B8 | 0.000539 KA relative to UGCAUGU
B9 | 0.0205 KA relative to UGCAUGU
B10 | 0.0288 KA relative to UGCAUGU
B11 | 0.0252 KA relative to UGCAUGU
B12 | 0.00519 KA relative to UGCAUGU
B13 | 0.00869 KA relative to UGCAUGU
B14 | 0.00651 KA relative to UGCAUGU
B15 | 0.00671 KA relative to UGCAUGU
B16 | 0.00854 KA relative to UGCAUGU

Binder | binding signal
B17 | 0.0144 KA relative to UGCAUGU
B18 | 0.0151 KA relative to UGCAUGU
B19 | 0.0124 KA relative to UGCAUGU
B20 | 0.00888 KA relative to UGCAUGU
B21 | 0.00112 KA relative to UGCAUGU
B22 | 0.00503 KA relative to UGCAUGU
B23 | 0.0165 KA relative to UGCAUGU
B24 | 0.0166 KA relative to UGCAUGU
B25 | 0.000894 KA relative to UGCAUGU
B26 | 0.00337 KA relative to UGCAUGU
B27 | 0.00771 KA relative to UGCAUGU
B28 | 0.00827 KA relative to UGCAUGU
B29 | 0.0147 KA relative to UGCAUGU
B30 | 0.0144 KA relative to UGCAUGU
B31 | 0.00262 KA relative to UGCAUGU
